From the supplement of paper PMC11417369
Some of the results follow.

Test system: PfSIP2 AP2 domain 1 (GST-tagged)
Assay: gcPBM binding intensity (ln(normalized median fluorescence intensity)); higher = stronger DNA binding
Outline: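 In this array assay, P. falciparum DNA-binding domains with a GST tag, expressed in E. coli, were applied for 1 h to primer-extended double-stranded 36-bp intergenic genomic probes and negative controls on an Agilent 4 × 180k array. Bound protein was visualised with Alexa488 anti-GST antibody at 488 nm. Binding intensity is the highest Masliner-normalised natural-log median intensity across replicate spots of either probe orientation.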

Sequence | gcPBM binding intensity (ln)
ATATATGCATATTATACACACATATGTATATACATT [CACACA_site965] | 7.07
TTTTCTGTATATTGTGTGCACACAATTAACAAAAAA [GTGCAC_site9817] | 9.05
AAAAAAAAAAAAAATGCACACAATGGCTAGCTGTAC [CACACA_site2273] | 7.58
TGGAGGTCAGTTCACAGTACCCAGGAAATCTACGGA [XGTACX_site1995] | 6.56
CCATAGATATTTTATACACACATATAACATATTAAT [CACACA_site6312] | 7.01
ATATTGACAAATATTACACACATATATAAATATGTA [CACACA_site7835] | 6.92
ATTTATTTTAATATATGTACATATATTTTTTTATTA [XGTACX_site3389] | 7.02
ATATAATATTACACAAGTACAAAAATTAATACTAAA [XGTACX_site482] | 6.97
CGTTATTATCCACATACACACAGGAATAAAAAATTA [CACACA_site2883] | 7.4
TAGTAATATATATTTTGTACATAAAATAATATATAA [XGTACX_site7971] | 7
ATTTGAAATGCATGAACACACACAGCTATAAATGCA [CACACA_site8229] | 6.99
TATATATGTTAAAACGTGCACATATATATATATATA [GTGCAC_site9589] | 9.59
ATAAAATATAAAAAAAGTACAAAAAAAAAAAAAAAA [XGTACX_site6657] | 7.19
ATATTATATAAATATACACACATTGTTTTATAGCAT [CACACA_site2386] | 7.05
AAAAAAAAATACATATGTACATATACATATATATAT [XGTACX_site2975] | 8.95
ATATATTTAATTTATGGTACACATAATTTTTTTAGA [XGTACX_site848] | 7.11
TTAAAAAAAAGACACACACACATACACATATTTATA [CACACA_site7535] | 7.15
TATATATATATATATACACACATATATATAAATATA [CACACA_site2035] | 9.26
CACAAAAGTAAGCACGCACACACAACCTGAAATAAA [CACACA_site166] | 7.13
TTAGTCATATATATATGTACACACATATATATATTT [XGTACX_site2948] | 7.04
AAAAGAAAATAAGAAACACACAAAAATATGTAAAAA [CACACA_site7694] | 6.64
ATTTTTATATAATGAACACACATATTATATCATTTA [CACACA_site1572] | 7.16

Sequence | gcPBM binding intensity (ln)
AAAATCCACATTTTAGTACACACTTAAAAAATTATT [CACACA_site2955] | 7.17
GAACATACTCAAATAGCACACACATAAATAAAAATG [CACACA_site9283] | 7.21
TTATATATATATATATGTACGAAAAAGAAAAAAAAG [XGTACX_site6761] | 7.57
TATATATATATAATATGTACATATAATCAACATTTT [XGTACX_site3915] | 8.68
ATATTATTTTAAAAAAGTACATTTTTAAGAATTCTT [XGTACX_site6630] | 7.18
AACATATAAATAAACTGTACATATATATATATATAT [XGTACX_site1056] | 9.34
AATATTACGTGTTTGGTATTTTTCGATGTTGGCAGG [XGTACX_negctrl_site59] | 7.15
TATCATTATGTAGAAACACACATAAGCTTCGGTTCA [CACACA_site2766] | 6.72
GGGGAAAAAAAAAAAGGAAAAAGAAAAAAAAAAAAA [GTGCAC_negctrl_site489] | 7
ATAAAATTTATATAAGCACACAAATATATATTTATA [CACACA_site9083] | 6.95
AATTGCATAATATATTCACACATTTTTAAGTGATAC [CACACA_site5679] | 6.85
GTAAAGGCTATATATGTGCACATTTTTTTTTTTTTT [GTGCAC_site9925] | 8.47
TTATGGTTATACATATGTACATATATATATATATAT [XGTACX_site1494] | 9.68
GTATATATATATATATGTACATATATGTAGATATAT [XGTACX_site5431] | 7.38
ATATGTACGCAAGGTGCACACTGGTGCATTAAAAAA [CACACA_site1801] | 12.3
TTTTATTTTTTCTCACGTACAAATATATAATTTTTT [XGTACX_site6952] | 7.13
TACATATGGCACATATGTACACACGTATAGATAATA [XGTACX_site4123] | 7.12
ATGAATATAAAATATACACACTTATATATCGAATGA [CACACA_site6240] | 6.79
AATATATCCTATTCGAACAAAAATACATGCACATAT [CACACA_negctrl_site1058] | 9.28
TTGTGGATTTTGTGCGCACACACATGCAAAAAGAAA [CACACA_site1147] | 9.54
TCTCAGTAAATTAAATGTACATAAGGGAGGAACTAT [XGTACX_site8045] | 7.22
TAAATATATGCATATACACACAACAAAAAAATATAT [CACACA_site2341] | 7.33
